Data as given in PubChem BioAssay AID686978 (National Center for Advancing Translational Sciences (NCATS), 2013).
Out of some 420,000 compounds screened, about 64,000 (15%) were called active. This list was built around the results that the source calls inconclusive (neither active nor inactive); the mix of calls is not that of the screen. The call rests on the fitted dose curve; in most records, active means well fitted inhibition curve with a large enough effect; inconclusive means small, poorly fitted or top-dose-only effect; inactive means flat fitted curve, though single readings scatter. No potency is given beside an inconclusive call; the fits are too rough.

Test: qHTS for Inhibitors of human tyrosyl-DNA phosphodiesterase 1 (TDP1): qHTS in cells in absence of CPT; further: nearly all actives have a fitted effect of over 55% in size
Conditions: DT40 Tdp1-/- hTDP1 cells, no CPT, ATP luminescence, 48 h; activity change, negative = growth inhibition: at 46.2 µM (top of the series)
Summary of the method: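 Seeded 400 DT40-hTDP1 cells/well (vehicle DMSO, no 20 nM CPT); pinned compounds; ≥48 hr at 37 °C; CellTiter-Glo luminescence as viability measure.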
On the % scale 0 is the no-effect control and ±100 the full control effect; potency means the concentration at half of the fitted maximal effect; tags describe the fitted curve by direction and shape.

| Compound | Potency | activity change, negative = growth inhibition |
| --- | --- | --- |
| Cc1ccc(S(=O)(=O)N2CCN(C(=O)COC(=O)CCOc3cc(C)ccc3C)CC2)cc1 | inconclusive [inhibitor, single point] |  |
| COc1ccc(C(=O)C[n+]2ccc3ccccc3c2C)cc1 | inconclusive [inhibitor, partial curve, poor fit] |  |
| O=C(c1ccc(F)cc1)N1CCN(c2ccc([N+](=O)[O-])c(N3CCCCC3)c2)CC1 | active: 23.1 µM |  |
| CN(C1CCCCC1)S(=O)(=O)c1ccc2c(c1)c(=O)c(C(=O)NCCc1ccc(Cl)cc1)cn2C | active: 20.6 µM |  |
| CCOC(=O)C1CCN(Cc2cccc(Oc3ccc(Cl)cc3)c2)CC1 |  | inactive: -24.7% |
| O=C(Oc1cccc2cccnc12)c1cccc(N2C(=O)C3C4CCC(C4)C3C2=O)c1 (configuration not stated) | active: 4.61 µM |  |
| NC(=O)c1nn(Cc2ccccc2)c(=O)c2ccccc12 | inconclusive [inhibitor, single point] |  |
| CCCCn1nnnc1C(c1cc2ccccc2o1)N1CCN(C(=O)OCC)CC1 (configuration not stated) | inconclusive [inhibitor, partial curve, poor fit] |  |
| CCOC(=O)C1CCCN(C(=O)c2cc3cc(F)ccc3[nH]2)C1 (configuration not stated) | inconclusive [inhibitor, partial curve] |  |
| COc1ccc(/C=C(/NC(=O)c2ccc(C)cc2)c2nc3ccccc3[nH]2)cc1OC | inconclusive [inhibitor, single point] |  |
| CCOc1ccc(-n2cc(C(=O)Nc3cccc(OC)c3)c3cc(OC)c(OC)cc3c2=O)cc1 |  | inactive: -26.2% |
| COc1cc(C2C(C(=O)c3cc4ccccc4o3)=C(O)C(=O)N2CCN2CCOCC2)ccc1OCCC(C)C (configuration not stated) |  | inconclusive: -31.9% [inhibitor] |
| Nc1nc(-c2ccccc2)cc(-c2ccccc2O)n1 | inconclusive [inhibitor, single point] |  |
| CC1=CC(C)(C)Nc2ccc(OC(=O)CN3C(=O)c4cccc5cccc(c45)C3=O)cc21 | active: 2.59 µM |  |
| O=C1N[C@@H](Cc2ccccc2)C(=O)N2[C@H]1C[C@]1(Br)c3ccccc3N(S(=O)(=O)c3ccc(F)cc3)[C@H]21 | inconclusive [inhibitor, partial curve] |  |
| CSCCC(NS(=O)(=O)c1ccc2c(c1)oc(=O)n2C)C(=O)NCCc1ccc(C)cc1 (configuration not stated) |  | inactive: -8.96% |
| CCc1ccc(-c2nc(CN3CCC(C(=O)NCc4ccc(F)cc4)CC3)c(C)o2)cc1 | inconclusive [inhibitor, single point] |  |
| Cn1nc(-c2ccc(OCC(=O)Nc3cccnc3)cc2)c2ccccc2c1=O | inconclusive [inhibitor, single point] |  |
| CC(=O)Nc1ccc(NC(=O)C(C)OC(=O)CCCOc2ccc(Cl)c(C)c2)cc1 (configuration not stated) | inconclusive [inhibitor, single point] |  |
| COC(=O)c1ccc(CC2(C)C(=O)Nc3ccc(-c4cccc(C(F)(F)F)c4)cc32)o1 (configuration not stated) | active: 16.4 µM |  |
| CCOc1ccc(S(=O)(=O)N2CCCCC2)cc1NC(=O)Cc1ccc(OC)cc1 | inconclusive [inhibitor, single point] |  |

| Compound | Potency | activity change, negative = growth inhibition |
| --- | --- | --- |
| CCOC1(OCC)OC(c2ccccc2)=C(C#N)C(C=Cc2ccccc2)C1(OCC)OCC (configuration not stated) | active: 20.6 µM |  |
| Cn1ncc2c(NNC(=O)c3ccc(Cl)cc3Cl)ncnc21 | inconclusive [inhibitor, single point] |  |
| Cc1ccc2c(C)c(C(=O)Nc3cccnc3)oc2c1C |  | inactive: -21.4% |
| CC[C@@H]1C(c2ccc(F)cc2)=NN(c2ccc(Br)cc2)[C@H]1C(=O)N1CCOC1=O | inconclusive [inhibitor, single point] |  |
| Fc1ccccc1N1CCN(c2ncnc3[nH]ncc23)CC1 | inconclusive [inhibitor, single point] |  |
| Cc1ccc(-c2onc(C)c2C)cc1S(=O)(=O)NCc1ccco1 | inconclusive [inhibitor, single point] |  |
| O=C(Nc1nnc(SCc2ccc(F)cc2)s1)C1Cc2ccccc2CN1C(=O)c1ccco1 (configuration not stated) | inconclusive [inhibitor, single point] |  |
| O=S(=O)(NCCSc1nnnn1-c1ccccc1)c1ccc(F)cc1 | inconclusive [inhibitor, single point] |  |
| O=C(Nc1ccc(Cl)cn1)c1ccc(Br)c(S(=O)(=O)N2CCCCC2)c1 | inconclusive [inhibitor, partial curve, poor fit] |  |
| COc1ccc(NC(=O)C2C3C=CC4(O3)C2C(=O)N(CCN2CCCCC2)C4C(=O)NC2CCCC(C)C2C)cc1 (configuration not stated) |  | inactive: -21.8% |
| Cc1cc(C(=O)OCc2nnc(-c3ccccc3)o2)c(C)n1-c1ccccc1 | active: 20.6 µM |  |
| Cc1c(Cc2ccccc2)sc(NC(=O)Cc2ccccc2)c1C(N)=O | inconclusive [inhibitor, single point] |  |
| CCOc1cc(C(=O)Nc2cccc(-c3nc4ccccc4o3)c2)cc(OCC)c1OCC | inconclusive [inhibitor, single point] |  |
| COc1ccccc1-c1nc(NC2CC2)c2ccccc2n1 | inconclusive [inhibitor, single point] |  |
| CSc1cccc(-n2cc(-c3ccc4c(c3)OCO4)[nH]c2=O)c1 | active: 5.17 µM |  |
| O=c1c(-c2cc(F)cc(F)c2)nc2cnc(N3CCNCC3)nc2n1-c1ccccc1 | inconclusive [inhibitor, single point] |  |
| CC(Nc1nc(=S)nc(Nc2ccc(F)cc2)[nH]1)c1ccccc1 (configuration not stated) | inconclusive [inhibitor, single point] |  |
| CC(C)CCNC(=O)C1(C)CCN1Cc1ccc2ccccc2c1 (configuration not stated) | active: 23.1 µM |  |
| O=C(COc1ccc(Cl)c(Cl)c1)NN1C(=O)C2C(C1=O)C1C=CC2C12CC2 (configuration not stated) | active: 18.4 µM |  |
| Cc1noc(C)c1COc1ccc(C(=O)N2CCN(S(=O)(=O)c3ccc(Cl)cc3)CC2)cc1 |  | inactive: 8.28% |
| CCC(C)c1ccccc1NC(=S)NC(=O)c1ccco1 (configuration not stated) | active: 13 µM |  |
